The campaign covered roughly 43,000 compounds. About 830 (1.9%) were called active. This list was built around the results that the source calls inconclusive (neither active nor inactive); the mix of calls is not that of the screen. The calls were made as follows: active = clear falling dose curves in both reporters; inconclusive = both reporters move, but less clearly or upward; inactive = either reporter flat; the % is the NLuc reporter signal. No potency is given beside an inconclusive call; the fits are too rough.
assay: Cell-based coincidence reporter assay to measure PMP22 gene transcription in S16 Pmp22-F2sN cells - Primary screen; settings: S16 Pmp22-F2sN Schwann cells (luciferase reporters placed in the Pmp22 gene), FLuc/NLuc coincidence luminescence, 24 h; measured here: NLuc reporter readout, at 57.5 µM (top of the series); activity change, negative = inhibition: at the top concentration
Outline: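 Schwann cells carrying the coincidence reporter were exposed to library compounds for 24 h at 37C, then lysed and read for FLuc and, after quenching, NLuc luminescence on a CCD imager.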
% is scaled to controls: 0 for no effect and ±100 for the full control effect; potency is read from the fitted curve at half-maximal effect; tags tell the direction and shape of the fitted curve.

Row | SMILES | Potency | activity change, negative = inhibition
1 | Cc1ccc(C)n1-c1nnc(N2CCCC(C(=O)NCc3cccc(Cl)c3)C2)s1 (stereo not given) | inconclusive [phenotype inactive, partial curve, poor fit] | 
2 | CCOc1ccccc1NC(=O)c1cnn2c(C(F)F)cc(-c3ccccc3)nc12 | active: 11.3 µM | 
3 | Cc1ccc(NC(=O)c2cc(S(=O)(=O)N3CCc4ccccc43)ccc2F)cc1Cl | inconclusive [phenotype inactive, single point] | 
4 | Cc1nc(-c2cccnc2)sc1CCNS(=O)(=O)c1ccc(F)cc1 | inconclusive [phenotype inactive, single point] | 
5 | COc1ccc(CNc2oc(-c3ccc(COc4ccccc4C)o3)nc2C#N)cc1 | inconclusive [phenotype inactive, single point] | 
6 | O=C(Nc1cccc(Cl)c1)c1cc2c(=O)[nH]c3ccccc3c2s1 | inconclusive [phenotype inactive, single point] | 
7 | CC(=O)N1CCc2c(sc3nc(SCC(C)C)n(-c4ccc(F)c(Cl)c4)c(=O)c23)C1 | inconclusive [phenotype inactive, single point] | 
8 | CC(C)c1ccc(OC(=O)c2cc(-c3ccccc3)on2)cc1 |  | inactive: 2.71%
9 | CC1=C(c2ccc(C)cc2)S(=O)(=O)NC1=NCCCN1CCN(c2ccc(F)cc2)CC1 | inconclusive [phenotype inactive, single point] | 
10 | Cc1ccc(NC(=O)CSc2nc(-c3ccco3)cc(C(F)(F)F)n2)cc1 | active: 2.15 µM | 
11 | COCCCNc1oc(-c2ccc(COc3ccc(Cl)cc3)o2)nc1C#N | inconclusive [phenotype inactive, single point] | 
12 | Cc1ccc(NC(=O)CCc2c(C)nc3cc(-c4ccccc4)nn3c2C)cc1F |  | inactive: -5.97%
13 | CCN(CC)c1nc2ccccc2nc1C(=O)Nc1cccc(C(C)=O)c1 | inconclusive [phenotype inactive, single point] | 
14 | CCOC(=O)c1c(C)[nH]c(C)c1S(=O)(=O)N(C)CC(=O)Nc1ccc(C)cc1C |  | inactive: -22.1%
15 | COc1ccc(-c2cc(C(C)=O)c(C)n2CCC(=O)Nc2cc(Cl)ccc2C)cc1 |  | inactive: -2.9%
16 | Fc1ccc(-c2noc3ncnc(NCc4ccc(Cl)cc4)c23)cc1 | inconclusive [phenotype inactive, partial curve] | 
17 | Clc1ccc(-c2noc3ncnc(NCCc4ccccc4)c23)cc1 | inconclusive [phenotype inactive, partial curve] | 
18 | COc1ccc(Br)cc1CN1C(=O)c2ccccc2C1C(=O)NC1CCCCCC1 (stereo not given) |  | inactive: -11.4%
19 | CC(=O)CSc1nnc2[nH]c(=O)cc(N)n12 | inconclusive [phenotype inactive, full curve, poor fit] | 
20 | Cc1cccc(-c2nnc(C3CCN(S(=O)(=O)c4cccc(Cl)c4)CC3)o2)c1 | inconclusive [phenotype inactive, single point] | 

Row | SMILES | Potency | activity change, negative = inhibition
21 | CCC(Sc1nc2ccccc2c(=O)n1CCc1ccc(OC)c(OC)c1)C(=O)N(CC)CC (stereo not given) | inconclusive [phenotype inactive, single point] | 
22 | CCC(=O)N(CCC(c1ccccc1)c1ccc2c(c1)OCO2)Cc1ccc(OC(C)C)cc1 (stereo not given) | inconclusive [phenotype inactive, single point] | 
23 | Cc1cc(C)c(NC(=O)CSc2nc(=O)[nH]c3c2CCCC3)c(C)c1 | inconclusive [phenotype inactive, partial curve] | 
24 | Cc1cccc(NC(=O)c2c(C)oc3ncn(CC(C)C)c(=O)c23)n1 | inconclusive [phenotype inactive, single point] | 
25 | COc1cc(NC(=O)c2ccc(C)cc2)ccc1NC(=O)c1cc2ccccc2o1 |  | inactive: -14.1%
26 | O=C(NCC1CCN(Cc2cccc(Cl)c2)CC1)Nc1cc(Cl)ccc1Cl | inconclusive [phenotype inactive, partial curve] | 
27 | Cc1ccc(C(=O)Nc2ccc(-c3cn4cccnc4n3)cc2)cc1C | inconclusive [phenotype inactive, single point] | 
28 | Cc1c(-c2nsc(NC(=O)c3ccccc3)n2)nnn1-c1ccc(C(F)(F)F)c(Cl)c1 | inconclusive [phenotype inactive, partial curve, poor fit] | 
29 | O=C1c2oc3ccccc3c(=O)c2C(c2ccccc2)N1Cc1ccc2c(c1)OCO2 (stereo not given) | inconclusive [phenotype inactive, single point] | 
30 | CCCCc1ccc(NC(=O)c2cc3c(=O)n4ccccc4nc3s2)cc1 |  | inactive: -10.1%
31 | COc1ccccc1-c1nnc(SCC(=O)c2ccc(Cl)cc2)n1-c1ccccc1 | inconclusive [phenotype inactive, single point] | 
32 | Cc1ccc(C)c(CN2CCC(CNC(=O)C(CC(C)C)N3Cc4ccccc4C3=O)CC2)c1 (stereo not given) | inconclusive [phenotype inactive, partial curve] | 
33 | Cc1cc2nn(-c3ccc(F)cc3)nc2cc1NC(=O)c1ccc(C(C)(C)C)cc1 | inconclusive [phenotype inactive, single point] | 
34 | CCOc1ccc(-n2c(-c3ccc(Br)cc3)cc3c2CC(C)(C)CC3=O)cc1 | inconclusive [phenotype inactive, single point] | 
35 | CCOc1cccc(CC(=O)NCc2ccc3c(c2)CCN3C(=O)c2cccc(C)c2)c1OCC | inconclusive [phenotype inactive, partial curve] | 
36 | Cc1ccc(NC(=O)c2ccc(F)c(S(=O)(=O)NCCc3ccccc3)c2)cc1F | inconclusive [phenotype inactive, single point] | 
37 | CCCCN1C(C(=O)c2ccccc2)=C(OC(=O)CC)c2ccccc2S1(=O)=O | inconclusive [phenotype inactive, partial curve, poor fit] | 
38 | O=C(c1ccc2c(c1)N(Cc1ccccc1)C(=O)c1ccccc1S2(=O)=O)N1CCC(Cc2ccccc2)CC1 | inconclusive [phenotype inactive, partial curve] | 
39 | CCc1cc(C(=O)N2CCN(c3ccccc3)CC2)no1 |  | inactive: 2.17%
40 | Cc1cc(Nc2cccc(C(F)(F)F)c2)nc2ccc(NC(=O)c3cccnc3)cc12 | inconclusive [phenotype inactive, partial curve] | 

Row | SMILES | Potency | activity change, negative = inhibition
41 | COc1cccc(CNC(=O)Cn2c(SCC(=O)Nc3ccc(C)c(C)c3)nc3ccccc32)c1 | inconclusive [phenotype inactive, single point] | 
42 | O=C(/C=C/c1ccccc1)N1CCN(Cc2cc(=O)n3nc(-c4ccccc4Cl)sc3n2)CC1 | inconclusive [phenotype inactive, single point] | 
43 | CCc1cccc(NC(=O)c2cccc3c2C(=O)N(C2CCCCC2)C3)c1 | inconclusive [phenotype inactive, single point] | 
44 | CCOc1ccccc1N1CC(c2nc3ccccc3n2CCOc2ccccc2OC)CC1=O (stereo not given) | inconclusive [phenotype inactive, single point] | 
45 | Cc1ccc(NC(=O)Cn2cnc3c(oc4ccccc43)c2=O)cc1 | inconclusive [phenotype inactive, single point] | 
46 | Cc1ccccc1CS(=O)(=O)c1ncc(Cl)c(C(=O)Nc2nnc(C(C)C)s2)n1 | active: 6.96 µM | 
47 | CCC(=O)C1=C(c2ccc(F)cc2)N(C(=O)CC)n2c(nnc2C2CCCCC2)S1 | inconclusive [phenotype inactive, partial curve] | 
48 | CCCCc1nn2c(=O)cc(COC(=O)C(C)Oc3ccccc3)nc2s1 (stereo not given) | inconclusive [phenotype inactive, single point] | 
49 | Cc1c(C(=O)Nc2ccccc2Br)oc2ccc(S(=O)(=O)N3CCOCC3)cc12 | inconclusive [phenotype inactive, partial curve, poor fit] | 
50 | CCOc1ccc(N(C)C(=O)CS(=O)(=O)c2cccc3nsnc23)cc1 |  | inactive: -14%
51 | O=C(NCc1ccccc1)c1cc2sccc2n1Cc1ccc(Cl)cc1 |  | inactive: -21.7%
52 | O=C(NCc1cccs1)c1ccc(Cn2c(SCc3ccccc3)nc3cccnc32)cc1 |  | inactive: -22.6%
53 | Cc1nn(-c2ccccc2)c2c1N(CCCC(=O)NCc1ccc(N(C)C)cc1)C(=O)CS2 | inconclusive [phenotype inactive, single point] | 
54 | Cc1cccc(CN2C(=O)N(c3ccc(C(C)C)cc3)S(=O)(=O)c3ccccc32)c1 | inconclusive [phenotype inactive, single point] | 
55 | Cc1ccccc1-c1nc2scc(CCNS(=O)(=O)c3ccccc3)n2n1 | inconclusive [phenotype inactive, single point] | 
56 | CCC1CN(C(=O)N2CCC(C(=O)NCc3ccc(N(C)C)cc3)CC2)c2ccccc2O1 (stereo not given) | inconclusive [phenotype inactive, partial curve, poor fit] | 
57 | CCOC(=O)c1ccc(-c2ccc(/C=C(\C#N)c3nc4ccc(C)cc4[nH]3)o2)cc1 |  | inactive: -166%
58 | O=C(CCSCc1cccc(Cl)c1)NCc1ccc(F)cc1Cl |  | inactive: -7.19%
59 | CC(C)(C)C1CCc2nc(NC(=O)c3ccc([N+](=O)[O-])cc3)sc2C1 (stereo not given) |  | inactive: 6.51%
60 | CCCN1CCN(c2cc3c(cc2F)c(=O)c(S(=O)(=O)c2ccc(CC)cc2)cn3CC)CC1 | inconclusive [phenotype inactive, partial curve, poor fit] | 

— PubChem BioAssay AID1508649 (National Center for Advancing Translational Sciences (NCATS), 2021)
